Data taken from PubChem BioAssay AID1347073 (National Center for Advancing Translational Sciences (NCATS), 2019).
About 200 (0.44%) of roughly 45,000 compounds were called active. Not shown: some 7% with an inconclusive outcome. The call rests on the fitted dose curve; in most records, active means well fitted activation curve with a large enough effect; inconclusive means small, poorly fitted or top-dose-only effect; inactive means no such curve, though single readings can be large or run the other way. This is one part of the list.

experiment: qHTS of TDP-43 Inhibitors: NCGC Sytravon Library Screen; details: yeast TDP-43 toxicity rescue, BacTiter-Glo growth, 24 h; series mostly up to 46.1 µM; growth rescue (activation): at the top concentration; further: nearly all actives have a fitted effect of over 55% in size; on growth rescue (activation): 0% is about no effect
Summary of the method: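 TDP-43-expressing yeast, pregrown in raffinose, seeded at OD600 0.02 in galactose medium with compound for 24 hr at 30 deg C. Growth read by BacTiter-Glo luminescence, so rescue of toxicity appears as activation.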
Potency means the concentration at half of the fitted maximal effect.

Row | SMILES | growth rescue (activation) | Potency
1 | CC1CCC/C(=C\Nc2ccc(C(=O)O)c(O)c2)C1=O (stereo not drawn) | inactive: 15.9% | 
2 | C=CCOc1ccc(/C=N/NC(=O)CN2CCOCC2)cc1OCC | inactive: 0.405% | 
3 | Cc1cc(C(F)(F)F)nc(SCC(=O)Nc2c(C)n(C)n(-c3ccccc3)c2=O)n1 | inactive: 6.48% | 
4 | CCN(CC)CCN(Cc1cc2cc(C)ccc2[nH]c1=O)C(=S)Nc1ccccc1 | inactive: 2.94% | 
5 | CC1=CN2C(=N)/C(=C/c3ccc(Sc4ccc(C)cc4)o3)C(=O)N=C2S1 | inactive: 5.06% | 
6 | COc1cc(C(=O)O)cc(NC(=O)c2ccco2)c1OC | inactive: 12.8% | 
7 | CCc1ccc(OCCCC(=O)Nc2cccc(C(=O)O)c2)cc1 | inactive: -4.47% | 
8 | O=C(NCCCO)c1cc([N+](=O)[O-])cc2c1C=Cc1ccccc1O2 | inactive: 7.05% | 
9 | CCN(CC)S(=O)(=O)c1ccc(N=Nc2c(N)[nH]c(=O)[nH]c2=O)cc1 | inactive: 10.4% | 
10 | CCOC(=O)c1c(NC(=O)c2cnn3c2NC(c2cccc(OC)c2)CC3C(F)(F)F)sc2c1CCCC2 (stereo not drawn) | inactive: 10.6% | 
11 | CCCCN(C)C1CCN(C(=S)Nc2cccc(SC)c2)CC1 | inactive: 3.64% | 
12 | O=C(NC(Cc1ccccc1)C(=O)O)/C(=C/c1ccc([N+](=O)[O-])cc1)NC(=O)c1ccco1 (stereo not drawn) | inactive: 17.5% | 
13 | Cc1ccc(S(=O)(=O)n2nc(OC(=O)c3ccccc3C)cc2N)cc1 | inactive: 22.7% | 
14 | Cc1n[nH]c(=O)nc1N/N=C/c1cccs1 | inactive: -0.071% | 
15 | O=C(CSc1nc2ncc(Br)cc2[nH]1)c1cccc([N+](=O)[O-])c1 | inactive: 16.6% | 
16 | COc1cc2c(cc1OC)C(COc1ccccc1OC)N(C(=O)C(C)(C)C)CC2 (stereo not drawn) | inactive: -10.6% | 
17 | Nc1nc2ccccc2n1CCOc1ccccc1Cl | inactive: 8.55% | 
18 | Cc1ccc(C(=O)CNc2cccc(Cl)c2)cc1 | inactive: 10% | 
19 | NC(=O)c1ccc(N2CCCCCC2)c([N+](=O)[O-])c1 | inactive: 20.7% | 
20 | COc1ccc(CCNc2ncnc3[nH]ncc23)cc1OC | inactive: 22.4% | 
21 | O=C1CC(/C=C/c2cccnc2)=Nc2ccccc2N1 | inactive: 3.11% | 
22 | Cc1nonc1OCCN1CCN(c2ccc([N+](=O)[O-])cc2)CC1 | inactive: 0.309% | 
23 | NC(=O)c1ccc(NC(=O)COC(=O)c2ccccc2Nc2ccccc2)cc1 | inactive: 4.8% | 

Row | SMILES | growth rescue (activation) | Potency
24 | COc1cc(S(=O)(=O)N2CCCC2)c(C)cc1C | inactive: 6.44% | 
25 | O=c1c2cc(F)ccc2[nH]c(=S)n1Cc1ccc(F)cc1 | inactive: 9.81% | 
26 | CCn1c(O)c(/C=C/C=C/C=Nc2ccccc2)sc1=S | inactive: -20.9% | 
27 | OC(c1ccc(F)cc1)c1nc(-c2csc3ccccc23)cs1 (stereo not drawn) | inactive: -34.8% | 
28 | CC(=O)Nc1ccc(S(=O)(=O)NC2(C(F)(F)F)C(=O)Nc3c2c(=O)[nH]c(=O)n3Cc2ccco2)cc1 (stereo not drawn) | inactive: -0.286% | 
29 | CCOc1ccc(-n2c(=O)c3sccc3n(CC(=O)NC3CCCCC3)c2=O)cc1 | inactive: -13.6% | 
30 | O=C1CN(C(=O)COC(=O)c2cc(S(=O)(=O)N3CCOCC3)ccc2Cl)c2ccccc2N1 | inactive: -16.4% | 
31 | Fc1ccccc1N1CCN(c2ncnc3nc[nH]c23)CC1 | inactive: 1.82% | 
32 | Cc1nc(Nc2ccc(C(=O)O)cc2)sc1-c1ccccc1 | inactive: -1.26% | 
33 | O=C(Cc1c(F)cccc1Cl)NNC(=O)c1ccco1 | inactive: -13.7% | 
34 | CCN(CC(=O)NC(C)(C)C)C(=O)CN1c2cccc3cccc(c23)S1(=O)=O | inactive: -11.1% | 
35 | O=C(COC(=O)c1ccc2c(c1)OCO2)NC1CCS(=O)(=O)C1 (stereo not drawn) | inactive: 7.3% | 
36 | COc1ccc(N2CCN(c3cncc(C)n3)CC2)cc1 | inactive: 15.4% | 
37 | COc1ccc(C2C3=C(CC(C)(C)CC3=O)Oc3ncn4nc(-c5ccccc5)nc4c32)cc1 (stereo not drawn) | inactive: -21.9% | 
38 | CC(C)(CSc1nncn1/N=C/c1ccco1)NS(=O)(=O)c1ccc(Cl)cc1 | inactive: -6.51% | 
39 | Cc1ccc(S(=O)(=O)/N=C(\N)c2ccc(Cl)cc2)cc1 | inactive: 18% | 
40 | CC(=N\NC(=O)c1ccc([N+](=O)[O-])cc1)/C(=N/O)C(=O)Nc1ccccc1 | inactive: 14.9% | 
41 | CC(=O)Nc1ccc(Nc2ccc(N3C(=O)CCCC3=O)cc2[N+](=O)[O-])cc1 | inactive: 12.4% | 
42 | CC(=O)Nc1nnc(SCc2ccc(C(=O)Nc3ccccc3F)cc2)s1 | inactive: 7.07% | 
43 | COc1cccc(NC(=O)C2C3C=CC(O3)C2C(=O)O)c1 (stereo not drawn) | inactive: -2.09% | 
44 | COc1cc(CCC(=O)OCC(=O)Nc2ccccc2F)cc(OC)c1OC | inactive: 6.53% | 
45 | COc1ccc(C(=O)NCCSc2ccccc2)cc1 | inactive: 3.63% | 
46 | O=C(NC(=S)NCC1CCCO1)c1ccccc1 (stereo not drawn) | inactive: -14.1% | 

Row | SMILES | growth rescue (activation) | Potency
47 | COc1ccc(/C(O)=C/c2nc3ccccc3n(-c3ccccc3)c2=O)cc1 | inactive: -1.49% | 
48 | O=C(O)C(Cc1c[nH]c2ccccc12)N1Cc2ccccc2C1=O (stereo not drawn) | inactive: -8.01% | 
49 | COc1cc(/C=C2\SC(=Nc3ccc(Cl)c(C(=O)O)c3)NC2=O)c(Br)c(Br)c1O | inactive: 3.47% | 
50 | c1ccc2c(c1)CNC1(CCCCC1)C2 | inactive: 14% | 
51 | COc1ccc2[nH]c(C(=O)N3CCN(Cc4ccccc4)CC3)cc2c1OC | inactive: 6.76% | 
52 | C=CC(=O)NC(NC(=O)C=C)c1ccccc1F | inactive: 22.2% | 
53 | CN(Cc1cccc(Cl)c1Cl)c1ccc(S(=O)(=O)N2CCCCC2)cc1[N+](=O)[O-] | inactive: -0.618% | 
54 | O=[N+]([O-])c1ccc(N2CCN(c3ccc(O)cc3)CC2)c(Cl)c1 |  | active: 12.6 µM
55 | Cc1cccc(C(=O)N2CCc3cc(-c4nc(NC(=O)CN5CCCC5)sc4C)ccc32)c1 | inactive: 12.9% | 
56 | Cc1nnc(SCC(=O)NC2CCCCC2)[nH]c1=O | inactive: 11.7% | 
57 | O=C(CC1OCC2CCCN2C1=O)Nc1ccc([N+](=O)[O-])cc1 (stereo not drawn) | inactive: -45% | 
58 | CCc1cccc(NC(=O)Cn2cc(C(=O)c3ccncc3)c(=O)c3cc(C)c(C)cc32)c1 | inactive: 11.2% | 
59 | CC(=O)c1ccc(C)cc1OC(=O)c1cccc(F)c1 | inactive: 23.8% | 
60 | CC(NC(=O)CSc1ncccn1)c1ccc(Cl)cc1Cl (stereo not drawn) | inactive: 11.5% | 
61 | C=CCn1c(SCC(=O)Nc2ncc(Cc3cc(Cl)ccc3Cl)s2)nnc1-c1ccncc1 | inactive: -1.32% | 
62 | CCOC(=O)c1cc2c(ccn2C)n1CC(=O)N(CC)CC | inactive: -3.81% | 
63 | O=C(NCc1ccccc1)C1CCN(C(=O)c2cnn(-c3ccccc3)c2-n2cccc2)CC1 | inactive: 4.31% | 
64 | O=C(CSc1nnc(C2COc3ccccc3O2)o1)Nc1ccc(F)cc1Cl (stereo not drawn) | inactive: 15.8% | 
65 | Cn1c(=O)n(Cc2ccccc2)c(=O)c2c1nc1n2CCCN1C1CCCCC1 | inactive: -14.2% | 
66 | CCNC(=S)N1CCC(c2nc3cc(C)c(C)cc3[nH]2)CC1 | inactive: -0.245% | 
67 | O=C(CSc1nnc(C2CC2)n1C1CC1)c1ccc(Br)s1 | inactive: 37% | 
68 | O=C(CS(=O)CC(=O)Nc1cnc2ccccc2c1)Nc1ccc(Cl)cc1 (stereo not drawn) | inactive: 4.87% | 
